Inconclusive means that the source gave no clear call. Such entries were picked first, then a sample of the others. For some assays here: No potency is given beside an inconclusive call; the fits are too rough. The source made the active and inactive calls. Unless noted, calls follow the shape of the dose curve; as a rule, active = well fitted curve in the direction sought with a large enough effect; inconclusive = small, poorly fitted or top-dose-only effect, or another doubt; inactive = no such curve, though single readings can be large; an effect the other way counts as inactive or inconclusive.
Columns and labels:
[1] = target: Ubiquitin carboxyl-terminal hydrolase 1 (Homo sapiens) (UniProt O94782); assay: Inhibitors of USP1/UAF1: Pilot qHTS (AID 504865);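 also: rhodamine fluorescence freed from ubiquitin-rhodamine substrate followed over time; potency is read from the fitted curve at half-maximal effect; nearly all actives have a fitted effect of over 35% in size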
Chain of UniProt O94782 (O94782 whole entry, looked up): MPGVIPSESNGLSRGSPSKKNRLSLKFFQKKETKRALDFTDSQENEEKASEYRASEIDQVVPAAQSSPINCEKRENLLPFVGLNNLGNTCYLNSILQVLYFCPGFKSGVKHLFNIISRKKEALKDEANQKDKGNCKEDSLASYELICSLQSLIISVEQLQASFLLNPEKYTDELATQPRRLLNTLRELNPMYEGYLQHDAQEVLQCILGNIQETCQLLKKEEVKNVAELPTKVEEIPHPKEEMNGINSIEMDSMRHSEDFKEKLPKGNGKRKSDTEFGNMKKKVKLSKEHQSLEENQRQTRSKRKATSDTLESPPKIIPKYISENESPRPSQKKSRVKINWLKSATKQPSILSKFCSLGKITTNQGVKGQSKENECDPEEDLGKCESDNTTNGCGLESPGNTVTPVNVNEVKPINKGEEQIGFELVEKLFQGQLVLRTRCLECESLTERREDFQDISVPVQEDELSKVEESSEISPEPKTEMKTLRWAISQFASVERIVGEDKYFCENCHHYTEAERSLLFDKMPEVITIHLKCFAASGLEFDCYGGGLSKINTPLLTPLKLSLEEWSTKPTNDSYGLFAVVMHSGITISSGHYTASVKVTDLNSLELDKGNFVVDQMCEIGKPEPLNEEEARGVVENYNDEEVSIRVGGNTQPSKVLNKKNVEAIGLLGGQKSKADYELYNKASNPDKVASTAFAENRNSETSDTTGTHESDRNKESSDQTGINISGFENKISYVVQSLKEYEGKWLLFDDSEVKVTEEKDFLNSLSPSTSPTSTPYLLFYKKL
Method in brief: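 Enzyme-free wells gave the negative control, while test wells held 1nM USP1/UAF1 preincubated with compound for 15 min at room temperature. Ub-Rho at 150nM final started the reaction, and fluorescence at 480/540 nm was recorded kinetically.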

[2] = system: Zika virus NS2B-NS3 protease (linked construct); assay: Confirmatory screen NINDS AMC qHTS for Zika virus inhibitors (AID 1347152); also: potency is read from the fitted curve at half-maximal effect; nearly all actives have a fitted effect of over 70% in size
Method in brief: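 Concentration-response confirmation used the NINDS linked protease (NS2B hydrophilic domain joined to NS3 protease domain), 1 nM, with a 15-min compound preincubation. Substrate, Nle-KRR-AMC at 10 microM, was read by UV fluorescence before and after 15 min.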

[3] = system: Zika virus NS2B-NS3 protease (unlinked complex); assay: Confirmatory screen GU AMC qHTS for Zika virus inhibitors (AID 1347153);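 also: percent inhibition with 0% = no inhibitor control and 100% = no enzyme control; nearly all actives have a fitted effect of over 70% in size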
Method in brief: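 Unlinked NS2B-NS3 complex (25 nM) in 10 mM Tris-HCl pH 8.0, 0.01% Tween 20 preincubated 15 min with compound, then 10 microM Bz-Nle-KRR-AMC (Km 18.3 µM). Fluorescence change over 15 min, normalized, Hill-fitted.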

[4] = system: Zika virus NS2B-NS3 protease; assay: Primary screen GU AMC qHTS for Zika virus inhibitors (AID 1347154); also: nearly all actives have a fitted effect of over 70% in size; also: potency is read from the fitted curve at half-maximal effect;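 as to activity change, negative = inhibition: 0% = no-inhibitor control and -100% = no-enzyme control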
Method in brief: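 Unlinked Zika NS2B hydrophilic domain–NS3 protease complex at 25 nM in 10 mM Tris-HCl pH 8.0, 0.01% Tween 20, with an AMC peptide substrate. Fluorescence change (340/450 nm) over 15 min at room temperature, normalized to controls, fitted to 4-parameter Hill.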

[5] = Confirmatory screen NINDS Rhodamine qHTS for Zika virus inhibitors (AID 1347161); also: potency is read from the fitted curve at half-maximal effect; nearly all actives have a fitted effect of over 60% in size
Method in brief: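 Percent inhibition, normalized to uninhibited and enzyme-free controls, is fitted to a 4-parameter Hill equation. Fluorescence change comes from a 15-min cleavage of 1.5 microM bis-peptide Rhodamine110 substrate by 25 nM linked NS2B-NS3 at room temperature.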

[6] = system: Zika virus NS2B-NS3 protease (linked); assay: 384 well plate NINDS AMC confirmatory qHTS for Zika virus inhibitors (AID 1347163); settings: Recombinant NS2B-NS3 protease, Ac-VKTGKR-AMC fluorescence; also: potency is read from the fitted curve at half-maximal effect; nearly all actives have a fitted effect of over 50% in size
Method in brief: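 Linked protease 5/30/60 nM final; cpds up to 1 mM final, ~15 min preinc. Substrate Ac-VKTGKR-AMC 30 microM final. RT, dark, 25 min; FI ex 355/em 460; normalized to no-enzyme/no-inhibitor ctrls.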

[7] = system: Zika virus NS2B-NS3 protease (linked construct); assay: 384 well plate NINDS Rhodamine confirmatory qHTS for Zika virus inhibitors (AID 1347164);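 also: top concentration of the series differs between compounds; plate controls were no-inhibitor control for no effect and no-enzyme control for full effect; nearly all actives have a fitted effect of over 65% in size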
Method in brief: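 Cleavage of Ac-LKRR-Rhodamine 110 (10 microM final) by linked protease (final 5, 30 or 60 nM) was followed as fluorescence at 485/538 nm after 25 min, room temperature, dark. Compounds preincubated ~15 min.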

[8] = Vero cells viability qHTS for Zika virus inhibitors (AID 1347167); also: % is scaled to controls: 0 for no effect and ±100 for the full control effect
Method in brief: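 Cells seeded at 2.5 x 10^5 cells/mL in DMEM with 4% FBS and attached overnight at 37 degrees C, then exposed to compound for 24 to 48 hours. Viability read as ATP content by CellTiter Glo luminescence.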

[9] = Tertiary RLuc qRT-PCR qHTS assay for Zika virus inhibitors (AID 1347169); settings: infected Vero cells, reporter luminescence, 48-72 h; activity change, negative = inhibition: at 45.9 µM (top of the series); also: top concentration of the series differs between compounds; % is scaled to controls: 0 for no effect and ±100 for the full control effect; nearly all actives have a fitted effect of over 55% in size
Method in brief: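 Inhibition of ZIKV-RLuc replication in Vero cells, read as Renilla luminescence 1-1.5 hrs after live-cell substrate addition, following 48-72 hrs infection at MOI 1-2 in presence of compound.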

[10] = qHTS Assay for Lipid Storage Modulators (AID 1519; calls by dose curve; also: % is scaled to controls: 0 for no effect and ±100 for the full control effect); settings: Drosophila S3 cells, BODIPY lipid droplet/cell ratio, laser cytometry, cells loaded with oleic acid; activity change, negative = inhibition: at 57.5 µM (top of the series) unless noted
Method in brief: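 Cells seeded at 5,000 per well were treated with compounds over a concentration series and loaded with oleic acid (400 uM, as added). Lipid droplet fluorescence (488 nm excitation, 500-530 nm channel) was read by laser-scanning cytometry and normalized to 20 uM Triacsin C.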

[11] = qHTS for differential inhibitors of proliferation of Plasmodium falciparum line GB4 (AID 1816); settings: Potency: Plasmodium falciparum GB4 proliferation inhibition;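 also: potency is read from the fitted curve at half-maximal effect; parasite growth measured after 72 h incubation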
[12] = qHTS for differential inhibitors of proliferation of Plasmodium falciparum line D10 (AID 1877);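 also: potency is read from the fitted curve at half-maximal effect; parasites grown with compound for 72 h before DNA staining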
[13] = target: DNA repair nuclease/redox regulator APEX1 (Homo sapiens) (UniProt P27695); assay: Confirmation qHTS Assay for Inhibitors of the Human Apurinic/apyrimidinic Endonuclease 1 (APE1) (AID 2572);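 also: fluorescence gain from purified APE1 cutting a TAMRA/BHQ-2 THF abasic duplex; % is scaled to controls: 0 for no effect and ±100 for the full control effect; nearly all actives have a fitted effect of over 30% in size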
Chain of UniProt P27695 (P27695 whole entry, looked up): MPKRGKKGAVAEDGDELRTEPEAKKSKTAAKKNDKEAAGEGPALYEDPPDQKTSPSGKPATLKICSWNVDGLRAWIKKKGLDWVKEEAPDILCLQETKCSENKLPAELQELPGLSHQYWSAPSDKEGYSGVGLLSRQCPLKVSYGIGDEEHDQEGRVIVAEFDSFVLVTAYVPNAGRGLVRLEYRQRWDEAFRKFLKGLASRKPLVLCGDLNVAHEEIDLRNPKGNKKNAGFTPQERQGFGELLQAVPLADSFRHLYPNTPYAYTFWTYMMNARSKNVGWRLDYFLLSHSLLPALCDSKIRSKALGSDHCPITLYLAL
Method in brief: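 Readout: kinetic fluorescence (Ex 525, Em 598 nm) from APE1 incision of a 5'-TAMRA, 3'-BHQ-2 duplex containing a THF abasic site at 50 nM final. Compound preincubation 15 min, room temperature.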

[14] = Validation screen for small molecules that induce DNA re-replication in MCF 10A normal breast cells (AID 463097); also: potency is read from the fitted curve at half-maximal effect; nearly all actives have a fitted effect of over 60% in size
Method in brief: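 Following 48 hr compound incubation (37 C, 5% CO2), MCF 10A cells receive Hoechst for 40 min at 37 C. Nuclei are then scanned (excitation 405 nm, emission 500-530 nm) for total fluorescence intensity.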

[15] = Primary qHTS for small molecule stabilizers of the endoplasmic reticulum resident proteome: Secreted ER Calcium Modulated Protein (SERCaMP) assay (AID 1508630); settings: SH-SY5Y GLuc-SERCaMP (Gaussia luciferase released on ER calcium loss) secretion, thapsigargin, luminescence; activity change, negative = inhibition: at 38.4 µM (top of the series); also: potency is read from the fitted curve at half-maximal effect
Method in brief: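 GLuc-SERCaMP-expressing SH-SY5Y cells, pretreated 16 h with compound, are challenged with thapsigargin to empty ER calcium stores; after 4 h, coelenterazine is added directly to the medium and luminescence is imaged.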

[16] = target: 3',5'-cyclic-AMP phosphodiesterase 4B (Homo sapiens) (UniProt Q07343); assay: qHTS Assay for Inhibitors of PDE-IV (AID 607; active = well fitted activation curve with a large enough effect in the main read-out, with a control signal flat, not every such curve was filed as active; inconclusive = small, poorly fitted or top-dose-only effect, or effect the other way, or a change in a side signal; also: % of control where 0% means no effect); settings: HEK293 ACTOne CNG channel cells, membrane potential fluorescence; activation (PDE inhibition): at 22.9 µM (top of the series)
Chain of UniProt Q07343 (Q07343 whole entry, looked up): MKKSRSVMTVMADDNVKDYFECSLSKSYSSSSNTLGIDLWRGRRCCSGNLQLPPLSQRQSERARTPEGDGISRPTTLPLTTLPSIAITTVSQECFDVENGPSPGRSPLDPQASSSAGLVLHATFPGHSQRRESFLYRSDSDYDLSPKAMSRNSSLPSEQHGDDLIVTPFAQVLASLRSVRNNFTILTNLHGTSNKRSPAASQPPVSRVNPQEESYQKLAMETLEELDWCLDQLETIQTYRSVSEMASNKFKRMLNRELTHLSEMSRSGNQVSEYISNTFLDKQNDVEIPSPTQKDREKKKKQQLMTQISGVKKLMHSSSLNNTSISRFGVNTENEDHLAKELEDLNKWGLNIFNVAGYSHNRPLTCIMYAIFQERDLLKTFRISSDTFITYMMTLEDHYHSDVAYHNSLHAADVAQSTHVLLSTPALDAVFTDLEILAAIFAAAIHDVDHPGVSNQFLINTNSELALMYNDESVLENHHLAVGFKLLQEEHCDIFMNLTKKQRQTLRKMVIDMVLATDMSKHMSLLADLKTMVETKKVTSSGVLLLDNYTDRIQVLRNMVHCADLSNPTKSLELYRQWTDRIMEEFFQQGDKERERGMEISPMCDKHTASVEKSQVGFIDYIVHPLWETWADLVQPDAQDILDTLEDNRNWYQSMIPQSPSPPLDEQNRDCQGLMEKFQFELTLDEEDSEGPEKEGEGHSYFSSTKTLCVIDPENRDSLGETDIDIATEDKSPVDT
Method in brief: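 HEK293 ACTOne cells with CNG channel (1000/well), endogenous PDE4; membrane potential dye, compounds up to 22.9 uM final. Fluorescence Ex 535/Em 590; RO 20-1724 (100 uM final) as reference.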

[17] = target: Cytochrome P450 3A4 (Homo sapiens) (UniProt P08684); assay: qHTS Assay for Activators of Cytochrome P450 3A4 (AID 885); settings: recombinant CYP3A4, Luciferin-PPXE luminescence, 60 min; activity change, positive = activation: at 57.1 µM (top of the series); also: nearly all actives have a fitted effect of over 65% in size
Chain of UniProt P08684 (P08684 whole entry, looked up): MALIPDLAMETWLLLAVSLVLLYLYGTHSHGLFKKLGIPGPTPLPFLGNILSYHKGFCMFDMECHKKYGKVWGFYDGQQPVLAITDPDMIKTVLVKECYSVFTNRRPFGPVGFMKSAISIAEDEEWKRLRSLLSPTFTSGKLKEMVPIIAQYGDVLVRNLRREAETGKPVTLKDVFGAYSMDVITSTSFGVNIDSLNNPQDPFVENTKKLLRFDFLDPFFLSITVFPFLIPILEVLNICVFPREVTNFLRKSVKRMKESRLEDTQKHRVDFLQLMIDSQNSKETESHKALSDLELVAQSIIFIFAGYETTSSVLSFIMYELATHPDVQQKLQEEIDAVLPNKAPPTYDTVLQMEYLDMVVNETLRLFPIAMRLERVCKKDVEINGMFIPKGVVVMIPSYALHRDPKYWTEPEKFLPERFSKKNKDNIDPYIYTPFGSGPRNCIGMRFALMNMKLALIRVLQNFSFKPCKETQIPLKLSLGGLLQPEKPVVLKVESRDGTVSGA
Method in brief: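 Human CYP3A4 (20 nM) with Luciferin-PPXE at 25 uM (its KM) in 200 mM KPO4; 10 min compound preincubation, then NADPH regeneration and 60 min reaction at RT. Luciferin read by luminescence; normalized to 57 uM ketoconazole full inhibition.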

[18] = qHTS Assay for Identification of Small Molecule Antagonists for NFkB Signaling Pathway (AID 895; active = well fitted inhibition curve with a large enough effect in the signal ratio, with a control signal flat, not every such curve was filed as active; inconclusive = small, poorly fitted or top-dose-only effect, or effect the other way, or a change in a side signal; the % refers to the signal ratio; also: potency is read from the fitted curve at half-maximal effect); settings: NFkB beta-lactamase reporter cells, FRET ratio 460/530; activity change, negative = inhibition: at 38.3 µM (top of the series) unless noted
Method in brief: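 ME-180 NFkB-bla cells (beta-lactamase under NFkB response element), plated overnight, treated with compound then 10 pM TNF alpha (about EC50) for 5 hrs at 37 C. LiveBLAzer FRET read at 460/530 nm emission, 405 nm excitation.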

[19] = qHTS Assay for Identification of Small Molecule Antagonists for Thrombopoietin (TPO) Signaling Pathway (AID 918); settings: TPO-dependent cell signaling reporter, antagonist mode; activity change, negative = inhibition: at 38.5 µM (top of the series); also: nearly all actives have a fitted effect of over 60% in size
Method in brief: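 First, Ba/F3 reporter cells expressing human TPO receptor were held overnight without IL-3. Next, compound and 26 pM TPO were added. After 24 hrs incubation at 37 C, luciferase luminescence under the Glycoprotein IIb promoter was recorded.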

[20] = target: Muscarinic acetylcholine receptor M1 (Rattus norvegicus) (UniProt P08482); assay: qHTS Assay for Antagonists of Acetylcholine Muscarinic M1 Receptor: Kinetic Measurement of Intracellular Calcium Response (AID 943);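 also: Fluo-4 calcium signal as peak divided by basal fluorescence over 4 min; nearly all actives have a fitted effect of over 75% in size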
Chain of UniProt P08482 (P08482 whole entry, looked up): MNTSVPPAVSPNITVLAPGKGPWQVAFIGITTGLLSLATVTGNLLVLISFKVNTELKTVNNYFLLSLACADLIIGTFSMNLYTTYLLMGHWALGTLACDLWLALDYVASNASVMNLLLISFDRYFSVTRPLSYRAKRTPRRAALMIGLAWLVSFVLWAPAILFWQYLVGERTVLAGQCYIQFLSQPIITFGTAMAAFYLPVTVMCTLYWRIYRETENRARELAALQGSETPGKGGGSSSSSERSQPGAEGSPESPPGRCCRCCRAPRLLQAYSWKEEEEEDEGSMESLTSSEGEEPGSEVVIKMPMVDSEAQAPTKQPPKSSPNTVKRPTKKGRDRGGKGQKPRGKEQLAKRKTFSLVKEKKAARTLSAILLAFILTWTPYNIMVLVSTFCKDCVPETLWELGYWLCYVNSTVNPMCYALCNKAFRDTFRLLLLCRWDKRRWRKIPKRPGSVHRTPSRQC
Method in brief: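 Intracellular calcium flux, recorded with Fluo-4 in a kinetic plate reader, served as signal; the response to carbachol at EC80 (100 nM final) was taken as maximal over minimal fluorescence after a 10 min compound pre-incubation in rat M1-CHO cells.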

[21] = target: Muscarinic acetylcholine receptor M1 (Rattus norvegicus) (UniProt P08482); assay: qHTS Assay for Antagonists of Acetylcholine Muscarinic M1 Receptor: Measurement of IP-One Response (AID 944); also: nearly all actives have a fitted effect of over 75% in size
Tags tell the direction and shape of the fitted curve or compound fluorescence and quenching.

In the case of Ic1cncc(OC[C@@H]2CCN2)c1, the Potency [1] is reported as inconclusive [inhibitor, partial curve, poor fit], the Potency [2] is reported as inconclusive [inhibitor, partial curve, poor fit] and the Potency [3] is reported as “inactive”. The Potency [4] was inconclusive [inhibitor, single point], the Potency [5] was active: 34.9 µM and the Potency [6] was inconclusive [inhibitor, partial curve, poor fit]. The Potency [7] was “inactive”, the Potency [8] was “inactive” and the Potency [9] was “inactive”.

In the case of CCCN1CCc2cccc3c2C1Cc1ccc(O)c(O)c1-3 (stereo not drawn), the Potency [10] is reported as “inactive”, the Potency [11] is reported as active: 2 µM and the Potency [12] is reported as active: 2.51 µM. For the same compound, the Potency [13] was “inactive”, the Potency [14] was inconclusive [activator, single point] and the Potency [4] was inconclusive [inhibitor, partial curve]. The Potency [15] was inconclusive [inhibitor, single point].

In the case of CN1C(=O)CCS(=O)(=O)[C@H]1c1ccc(Cl)cc1, the Potency [16] is reported as “inactive”, the activity change, positive = activation [17] is reported as inconclusive: 37% [activator] and the Potency [18] is reported as inconclusive [inhibitor, single point]. The activity change, negative = inhibition [19] was inconclusive: 2.31% [phenotype inactive], the Potency [20] was “inactive” and the Potency [21] was “inactive”. For the same compound, the Potency [4] was “inactive”.
